Results reported in PubChem BioAssay AID624418 (National Center for Advancing Translational Sciences (NCATS), 2012).
The campaign covered roughly 410,000 compounds. About 530 (0.13%) were called active. The inconclusive results got no clear call from the source; some entries with a clear call stand among them for comparison. Calls follow the shape of the dose curve; as a rule, active = well fitted inhibition curve with a large enough effect; inconclusive = small, poorly fitted or top-dose-only effect, or another doubt; inactive = no such curve, though single readings can be large or run the other way. Potencies beside an inconclusive call are fits to weak or partial responses and may not hold up.

assay: qHTS of GLP-1 Receptor Inverse Agonists: Cytotox Screen; settings: HEK293 cAMP-luciferase reporter cells, luminescence, 24 h; activity change, negative = inhibition: at 38.3 µM (top of the series) unless noted
Procedure, shortened: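 MLSMR compounds, 24 hr on cells at 37 deg C/5% CO2; luminescence after luciferase reagent (12 min RT). Inhibition counted as the undesired cytotoxic outcome.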
% is scaled to controls: 0 for no effect and ±100 for the full control effect; potency is read from the fitted curve at half-maximal effect.

SMILES	Potency	activity change, negative = inhibition
OC(COc1ccccc1)CN1CCC(Cc2ccccc2)CC1 (stereo not given)	inconclusive: 11.2 µM [inhibitor, single point]	
COc1ccc(/C=C2\SC(=O)N(CC(=O)Nc3ccc(F)cc3)C2=O)cc1O	inconclusive: 28.2 µM [inhibitor, single point]	
CC(C)(C)c1ccc(C(=O)O/N=C(\N)Cc2cccs2)cc1	inconclusive: 22.4 µM [inhibitor, single point]	
CC1(C)CC(=O)C=C(c2ccc(COC(=O)C(c3ccccc3)c3ccccc3)cc2)C1=O		inactive: 0.866%
Cc1oc2ncn(C)c(=O)c2c1C(=O)NC(C)c1ccccc1 (stereo not given)		inactive: 11.1%
Cc1cc(C)cc(OC(=O)CS(=O)c2ccc(C(F)(F)F)cc2[N+](=O)[O-])c1 (stereo not given)	inconclusive: 28.2 µM [inhibitor, single point]	
C(=N\N1CCN(C2c3ccccc3-c3ccccc32)CC1)/c1ccccn1		inactive: 16.2%
COc1ccc2c(Cl)c(C(=O)NN)sc2c1	inconclusive: 28.2 µM [inhibitor, single point]	
c1ccc(CNc2nc(CN3CCOCC3)nc3scc(-c4ccccc4)c23)cc1		inactive: -1.9%
O=C(CN1C2=NCCN2c2ccccc21)C12CC3CC(CC(C3)C1)C2	inconclusive: 11.2 µM [inhibitor, partial curve, poor fit]	
COc1cc(C(=O)OCC#N)ccc1OCc1c(C)noc1C	inconclusive: 11.2 µM [inhibitor, partial curve]	
CC(NC(=O)Cn1ncc(Cl)c(Cl)c1=O)C12CC3CC(CC(C3)C1)C2 (stereo not given)	inconclusive: 12.6 µM [inhibitor, single point]	
O=C(N/N=C/c1ccc(C(F)(F)F)cc1)c1ccc(O)cc1		inactive: -21.2%
COc1ccc(C2C(O)C(c3c[nH]c4ccccc34)=NN2C(=O)CCl)cc1 (stereo not given)	active: 11.2 µM	
CNC(=S)N/N=C/c1ccccc1Cl	inconclusive: 12.6 µM [inhibitor, single point]	
O=C(NC(=S)Nc1cc([N+](=O)[O-])ccc1O)c1cccnc1	inconclusive: 28.2 µM [inhibitor, single point]	
CCCCCOC(=O)CSc1ncnc2c1sc1nc(N3CCOCC3)c3c(c12)CCCC3		inactive: -0.869%
CCCCC(Sc1nc(N)c(NC(=O)c2ccco2)c(=O)[nH]1)C(=O)O (stereo not given)	inconclusive: 28.2 µM [inhibitor, single point]	
Cc1cc(Nc2cccc(C)c2C)n2cnnc2n1		inactive: -1.42%
Cc1ccc(C(=O)CC2(O)C(=O)N(CCc3ccccc3)c3ccc(Cl)cc32)cc1 (stereo not given)	inconclusive: 31.6 µM [inhibitor, partial curve, poor fit]	
O=C(NCc1ccc2c(c1)OCO2)c1cc([N+](=O)[O-])ccc1N1CCCCC1	inconclusive: 1.58 µM [inhibitor, partial curve, poor fit]	
Cc1ccc(CN(Cc2cccnc2)C(=S)Nc2cccc(Cl)c2C)cc1	inconclusive: 10 µM [inhibitor, partial curve, poor fit]	
Cn1c(NCCCN2CCOCC2)nc2c1c(=O)n(Cc1ccc(Cl)cc1Cl)c(=O)n2C		inactive: -4.44%
Cc1ccc(/C=C/c2onc(C)c2S(=O)(=O)N2CCC(C(=O)NCc3ccc(C)o3)CC2)cc1		inactive: 3.09%

SMILES	Potency	activity change, negative = inhibition
CC(C)[C@@H]1NC(=O)c2cc([N+](=O)[O-])cc(I)c2NCCC[C@@H](C(=O)NC(CC(=O)O)C(N)=O)NC(=O)[C@H](CO)NC1=O (stereo not given in full)	inconclusive: 28.2 µM [inhibitor, single point]	
COc1cccc(C(=O)NC(=S)Nc2ccc(N3CCCC3)cc2)c1	inconclusive: 14.1 µM [inhibitor, single point]	
OC(C#Cc1ccccn1)c1cccs1 (stereo not given)	inconclusive: 8.91 µM [inhibitor, partial curve, poor fit]	
O=c1c(Br)ccc(Br)cc1Br	inconclusive: 7.08 µM [inhibitor, partial curve, poor fit]	
O=[N+]([O-])c1ccc(O)c(C(C#Cc2ccccc2)N2CCOCC2)c1 (stereo not given)	inconclusive: 17.8 µM [inhibitor, single point]	
S=C(c1ccc2c(c1)OCO2)N1CCN(c2cccc(Cl)c2)CC1	inconclusive: 2.24 µM [inhibitor, partial curve, poor fit]	
N/C(=N\OC(=O)c1cccc(Br)c1)c1ccncc1	inconclusive: 12.6 µM [inhibitor, single point]	
CN1CCN(CCOc2ccc(Cc3ccccc3)cc2)CC1		inactive: -1.41%
COc1ccc2c(c1)[nH]c1c(N3CCN(Cc4ccc5c(c4)OCO5)CC3)ncnc12	inconclusive: 10 µM [inhibitor, single point]	
c1cncc(CSc2ccc(-c3ccc4c(c3)OCO4)nn2)c1		inactive: -6.87%
COc1ccc2[nH]c(=O)c(CN(CCO)C(=O)c3cccs3)cc2c1		inactive: -0.0526%
Cc1ccc2c(c1)N(CC(=O)N1CCN(c3nc4ccccc4s3)CC1)C(=O)C(C)O2 (stereo not given)	inconclusive: 2.82 µM [inhibitor, partial curve]	
CC(C)NC(=O)C1(C)CSCC(=O)N1CCOc1ccccc1 (stereo not given)		inactive: -6.9%
O=C(NC(NC(=S)Nc1c(Cl)cccc1Cl)C(Cl)(Cl)Cl)c1cccc([N+](=O)[O-])c1 (stereo not given)	active: 12.6 µM	
CSc1cccc(NC(=O)Cn2c3ncccc3c(=O)n2-c2ccc(C)cc2)c1		inactive: -4.24%
CC(C)c1ccc(NC(=S)N2CCN(Cc3ccccc3)CC2)cc1		inactive: -12.6%
Cc1nc2nc(-c3ccccc3)[nH]n2c(=O)c1Cc1ccccc1		inactive: -1.96%
CCCc1ccc(C(C)NC(=S)NC2CCCCC2)cc1 (stereo not given)	inconclusive: 3.55 µM [inhibitor, full curve, poor fit]	
O=S(=O)(Nc1cccc(-c2ccc(N3CCCC3)nn2)c1)c1ccccc1C(F)(F)F		inactive: 0.316%
O=C(NCCc1c[nH]c2ccccc12)C(=O)Nc1ccccc1		inactive: -12.9%
Cc1cc(C)c(C#N)c(Sc2nc(C)c([N+](=O)[O-])c(C)c2C#N)n1	inconclusive: 28.2 µM [inhibitor, single point]	
Cn1cnc(S(=O)(=O)NC2CCN(Cc3ccccc3)CC2)c1		inactive: 1.37%
CC(NC(=O)C1CCCN(S(=O)(=O)N2CCOCC2)C1)c1ccccc1 (stereo not given)		inactive: -0.274%
Cc1ccccc1NC(=O)c1cccc(NC(=O)c2ccccc2C(=O)O)c1	inconclusive: 8.91 µM [inhibitor, single point]	

SMILES	Potency	activity change, negative = inhibition
CCOC(=O)c1oc2cccc(OCC(O)CNC(C)C)c2c1C (stereo not given)	inconclusive: 22.4 µM [inhibitor, single point]	
COc1ccc(/C=C2\SC(=S)N(CC(=O)N(C)C3CCS(=O)(=O)C3)C2=O)cc1 (stereo not given)	inconclusive: 20 µM [inhibitor, single point]	
COc1c(-c2ccc([N+](=O)[O-])cc2[N+](=O)[O-])c(=O)n(C)c(=O)n1C	inconclusive: 20 µM [inhibitor, single point]	
Cc1ccc(S(=O)(=O)Cc2ccc(C(=O)N3CCCC3)o2)cc1	inconclusive: 28.2 µM [inhibitor, single point]	
CCCNC(=S)Nc1ccc(Cl)cc1Cl		inactive: 0.375%
COc1ccc(-c2[nH]ncc2/C=N/NC(=O)c2cc(Br)ccc2O)c(OC)c1	inconclusive: 25.1 µM [inhibitor, single point]	
CC(C)CNC(=S)N1CCN(C(c2ccccc2)c2ccccc2)CC1		inactive: -11.4%
N/C(=N\OC(=O)N1CCOCC1)c1ccc(Cl)cc1	inconclusive: 10 µM [inhibitor, single point]	
NC(=O)c1cccc(-c2coc3c(C(=O)NCCc4ccccc4)cccc23)c1	inconclusive: 28.2 µM [inhibitor, single point]	
CCOCCC(=O)Nc1ccc2c(c1)c(=O)n(C)n2C/C=C/c1ccccc1	inconclusive: 10 µM [inhibitor, partial curve, poor fit]	
OC(CNCc1ccco1)Cn1c2ccc(Br)cc2c2cc(Br)ccc21 (stereo not given)	inconclusive: 20 µM [inhibitor, single point]	
COC(=O)C1=C(C)N(CCCC(=O)O)C(=O)NC1c1ccccc1Cl (stereo not given)	inconclusive: 0.501 µM [inhibitor, full curve, poor fit]	
C=CCSc1nnc(CCCCCN2C(=O)c3cccc4cccc(c34)C2=O)o1	inconclusive: 2.51 µM [inhibitor, partial curve, poor fit]	
CCCn1c(SCc2nc(-c3ccc(OC)cc3OC)no2)nnc1-c1ccc(Cl)cc1		inactive: 2.03%
COc1cc(/C=C/C(=O)c2ccc(NS(=O)(=O)c3ccc(C)cc3)cc2)ccc1OC(F)F	inconclusive: 11.2 µM [inhibitor, single point]	
CCOc1ccc(CCN2C(=S)N([C@@H](Cc3ccc(O)cc3)CN3CCC[C@@H]3CN3C(=S)NC[C@@H]3CC(C)C)C[C@@H]2Cc2ccc(O)cc2)cc1	inconclusive: 22.4 µM [inhibitor, single point]	
CCOc1ccc(C(=O)N/N=C/c2ccccc2[N+](=O)[O-])cc1	inconclusive: 11.2 µM [inhibitor, single point]	
COCCNc1nnc(SCC(=O)Nc2sc3c(c2C(=O)c2ccccc2)CCCC3)s1	inconclusive: 12.6 µM [inhibitor, single point]	
O=C(NC1CCCC1)c1cc(-c2cccc(Cl)c2)on1	inconclusive: 0.447 µM [inhibitor, full curve, poor fit]	
COc1ccc(NC(=O)c2cnc3sccn3c2=O)cc1		inactive: -7.54%
Cc1cc(Cl)ccc1NC(=S)NC1CCCC1	inconclusive: 28.2 µM [inhibitor, single point]	
O=C(NCC(F)(F)F)c1cc2c(c(-c3cccc(-c4ccccc4F)c3)n1)[C@@H](CCO)N(C(=O)CC1CC1)C2	inconclusive: 31.6 µM [inhibitor, single point]	
